Some of the results follow. The list includes weakly bound sequences.
These sequences were tested against T1, MBP-FoxP3dN (UniProt Q99JB6) (assay: PD-seq (MBP pull-down with sequencing)). Details: 20 mM Tris-HCl pH 7.5, 100 mM NaCl, 1.5 mM MgCl2, 0.4 uM protein, 0.1 uM dsDNA library, 30 min, room temperature, amylose pull-down; high values mean tight binding; double strand, one strand shown.
T1 sequence: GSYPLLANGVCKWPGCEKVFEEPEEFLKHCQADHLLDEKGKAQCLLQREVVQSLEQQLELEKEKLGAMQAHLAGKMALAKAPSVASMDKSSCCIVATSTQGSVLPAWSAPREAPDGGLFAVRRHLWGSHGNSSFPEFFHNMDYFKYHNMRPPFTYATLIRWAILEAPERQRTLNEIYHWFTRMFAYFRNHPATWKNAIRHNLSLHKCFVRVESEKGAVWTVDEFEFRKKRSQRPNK
In the case of “GATGATTGTTCTCCCAGCTGATGAATTTGAGTCATCGAGTAAACAAATTTTCCTAATCTTTCTGTTCAAGCGCCATCTAC”, the binding signal (RPM ratio (pull-down/input)) is reported as 0.776.
In the case of “GATGATTGTTCTCCCAGCTGATGAATTCATAGTCTCGAGTAAACAAATTTTCCTAATCTTTCTGTTCAAGCGCCATCTAC”, the binding signal (RPM ratio (pull-down/input)) is reported as 0.646.
“GATGATTGTTCTCCCAGCTGATGAATTCACCCGCTCGAGTAAACAAATTTTCCTAATCTTTCTGTTCAAGCGCCATCTAC” was tested, and the binding signal (RPM ratio (pull-down/input)) was 0.263.
“GATGATTGTTCTCCCAGCTGATGAATTGAGAAGTTCGAGTAAACAAATTTTCCTAATCTTTCTGTTCAAGCGCCATCTAC” showed a binding signal (RPM ratio (pull-down/input)) of 0.219.
Work on “GATGATTGTTCTCCCAGCTGATGAATTTCTATGTTCGAGTAAACAAATTTTCCTAATCTTTCTGTTCAAGCGCCATCTAC” yielded a binding signal (RPM ratio (pull-down/input)) of 0.457.
For “GATGATTGTTCTCCCAGCTGATGAATTATTGTTGTCGAGTAAACAAATTTTCCTAATCTTTCTGTTCAAGCGCCATCTAC”, the binding signal (RPM ratio (pull-down/input)) was 4.3.
Sequence “GATGATTGTTCTCCCAGCTGATGAATTTCAAACTTCGAGTAAACAAATTTTCCTAATCTTTCTGTTCAAGCGCCATCTAC” has a binding signal (RPM ratio (pull-down/input)) of 0.276.
“GATGATTGTTCTCCCAGCTGATGAATTAAGAACCTCGAGTAAACAAATTTTCCTAATCTTTCTGTTCAAGCGCCATCTAC” gave a binding signal (RPM ratio (pull-down/input)) of 0.244.
“GATGATTGTTCTCCCAGCTGATGAATTGCCGGTCTCGAGTAAACAAATTTTCCTAATCTTTCTGTTCAAGCGCCATCTAC” gave a binding signal (RPM ratio (pull-down/input)) of 0.57.
In the case of “GATGATTGTTCTCCCAGCTGATGAATTAGGTGTCTCGAGTAAACAAATTTTCCTAATCTTTCTGTTCAAGCGCCATCTAC”, the binding signal (RPM ratio (pull-down/input)) is reported as 1.65.
“GATGATTGTTCTCCCAGCTGATGAATTCTGTTATTCGAGTAAACAAATTTTCCTAATCTTTCTGTTCAAGCGCCATCTAC” was tested, and the binding signal (RPM ratio (pull-down/input)) was 6.72.
“GATGATTGTTCTCCCAGCTGATGAATTCTGAACCTCGAGTAAACAAATTTTCCTAATCTTTCTGTTCAAGCGCCATCTAC” showed a binding signal (RPM ratio (pull-down/input)) of 0.328.
“GATGATTGTTCTCCCAGCTGATGAATTCGACCCGTCGAGTAAACAAATTTTCCTAATCTTTCTGTTCAAGCGCCATCTAC” showed a binding signal (RPM ratio (pull-down/input)) of 0.264.
“GATGATTGTTCTCCCAGCTGATGAATTATTACTCTCGAGTAAACAAATTTTCCTAATCTTTCTGTTCAAGCGCCATCTAC” showed a binding signal (RPM ratio (pull-down/input)) of 0.411.
Sequence “GATGATTGTTCTCCCAGCTGATGAATTAGACTCCTCGAGTAAACAAATTTTCCTAATCTTTCTGTTCAAGCGCCATCTAC” has a binding signal (RPM ratio (pull-down/input)) of 0.422.
“GATGATTGTTCTCCCAGCTGATGAATTCCTAGCATCGAGTAAACAAATTTTCCTAATCTTTCTGTTCAAGCGCCATCTAC” gave a binding signal (RPM ratio (pull-down/input)) of 0.659.
For “GATGATTGTTCTCCCAGCTGATGAATTTTTTAATTCGAGTAAACAAATTTTCCTAATCTTTCTGTTCAAGCGCCATCTAC”, the binding signal (RPM ratio (pull-down/input)) was 0.279.
“GATGATTGTTCTCCCAGCTGATGAATTACGCCATTCGAGTAAACAAATTTTCCTAATCTTTCTGTTCAAGCGCCATCTAC” showed a binding signal (RPM ratio (pull-down/input)) of 5.04.
“GATGATTGTTCTCCCAGCTGATGAATTTTCTGCCTCGAGTAAACAAATTTTCCTAATCTTTCTGTTCAAGCGCCATCTAC” was tested, and the binding signal (RPM ratio (pull-down/input)) was 0.359.
“GATGATTGTTCTCCCAGCTGATGAATTGGTCTGTTCGAGTAAACAAATTTTCCTAATCTTTCTGTTCAAGCGCCATCTAC” showed a binding signal (RPM ratio (pull-down/input)) of 0.463.
Work on “GATGATTGTTCTCCCAGCTGATGAATTATGTTGCTCGAGTAAACAAATTTTCCTAATCTTTCTGTTCAAGCGCCATCTAC” yielded a binding signal (RPM ratio (pull-down/input)) of 4.42.
“GATGATTGTTCTCCCAGCTGATGAATTAACACGGTCGAGTAAACAAATTTTCCTAATCTTTCTGTTCAAGCGCCATCTAC” was tested, and the binding signal (RPM ratio (pull-down/input)) was 0.272.
Sequence “GATGATTGTTCTCCCAGCTGATGAATTGACATCGTCGAGTAAACAAATTTTCCTAATCTTTCTGTTCAAGCGCCATCTAC” has a binding signal (RPM ratio (pull-down/input)) of 0.548.
Sequence “GATGATTGTTCTCCCAGCTGATGAATTAGTTTTTTCGAGTAAACAAATTTTCCTAATCTTTCTGTTCAAGCGCCATCTAC” has a binding signal (RPM ratio (pull-down/input)) of 3.9.
“GATGATTGTTCTCCCAGCTGATGAATTGTAGTACTCGAGTAAACAAATTTTCCTAATCTTTCTGTTCAAGCGCCATCTAC” was tested, and the binding signal (RPM ratio (pull-down/input)) was 1.16.
In the case of “GATGATTGTTCTCCCAGCTGATGAATTCAGAACCTCGAGTAAACAAATTTTCCTAATCTTTCTGTTCAAGCGCCATCTAC”, the binding signal (RPM ratio (pull-down/input)) is reported as 0.244.
Sequence “GATGATTGTTCTCCCAGCTGATGAATTTGGGTGGTCGAGTAAACAAATTTTCCTAATCTTTCTGTTCAAGCGCCATCTAC” has a binding signal (RPM ratio (pull-down/input)) of 0.682.
“GATGATTGTTCTCCCAGCTGATGAATTATCAGCCTCGAGTAAACAAATTTTCCTAATCTTTCTGTTCAAGCGCCATCTAC” gave a binding signal (RPM ratio (pull-down/input)) of 0.468.
“GATGATTGTTCTCCCAGCTGATGAATTTGAGTTCTCGAGTAAACAAATTTTCCTAATCTTTCTGTTCAAGCGCCATCTAC” gave a binding signal (RPM ratio (pull-down/input)) of 1.12.
“GATGATTGTTCTCCCAGCTGATGAATTAACGCTTTCGAGTAAACAAATTTTCCTAATCTTTCTGTTCAAGCGCCATCTAC” was tested, and the binding signal (RPM ratio (pull-down/input)) was 1.13.
For “GATGATTGTTCTCCCAGCTGATGAATTATGACTATCGAGTAAACAAATTTTCCTAATCTTTCTGTTCAAGCGCCATCTAC”, the binding signal (RPM ratio (pull-down/input)) was 0.751.
“GATGATTGTTCTCCCAGCTGATGAATTTGGCGCCTCGAGTAAACAAATTTTCCTAATCTTTCTGTTCAAGCGCCATCTAC” gave a binding signal (RPM ratio (pull-down/input)) of 1.41.
“GATGATTGTTCTCCCAGCTGATGAATTGCTAGACTCGAGTAAACAAATTTTCCTAATCTTTCTGTTCAAGCGCCATCTAC” showed a binding signal (RPM ratio (pull-down/input)) of 0.468.
In the case of “GATGATTGTTCTCCCAGCTGATGAATTTCCGAGGTCGAGTAAACAAATTTTCCTAATCTTTCTGTTCAAGCGCCATCTAC”, the binding signal (RPM ratio (pull-down/input)) is reported as 0.172.
Work on “GATGATTGTTCTCCCAGCTGATGAATTCTTTGCTTCGAGTAAACAAATTTTCCTAATCTTTCTGTTCAAGCGCCATCTAC” yielded a binding signal (RPM ratio (pull-down/input)) of 0.407.
Work on “GATGATTGTTCTCCCAGCTGATGAATTTGAAATATCGAGTAAACAAATTTTCCTAATCTTTCTGTTCAAGCGCCATCTAC” yielded a binding signal (RPM ratio (pull-down/input)) of 0.351.
“GATGATTGTTCTCCCAGCTGATGAATTACCTCTATCGAGTAAACAAATTTTCCTAATCTTTCTGTTCAAGCGCCATCTAC” was tested, and the binding signal (RPM ratio (pull-down/input)) was 0.384.
With “GATGATTGTTCTCCCAGCTGATGAATTTCGAGTATCGAGTAAACAAATTTTCCTAATCTTTCTGTTCAAGCGCCATCTAC” the binding signal (RPM ratio (pull-down/input)) was 0.717.
Work on “GATGATTGTTCTCCCAGCTGATGAATTCGAGCTCTCGAGTAAACAAATTTTCCTAATCTTTCTGTTCAAGCGCCATCTAC” yielded a binding signal (RPM ratio (pull-down/input)) of 0.302.
For “GATGATTGTTCTCCCAGCTGATGAATTGTGGTGGTCGAGTAAACAAATTTTCCTAATCTTTCTGTTCAAGCGCCATCTAC”, the binding signal (RPM ratio (pull-down/input)) was 1.11.

From article PMC12820563
